Test results as given in the supplement of paper PMC4166925.
± gives the standard deviation of the averaged measurements. In all, about 33,000 sequences were measured (“E-score (dimensionless, -0.5 to 0.5)”: median about -0.046, highest 2% from about 0.36 on). The list shows a part of the results.

Test system: T1, SpTbr T-box DNA-binding domain (GST fusion)
T1 sequence: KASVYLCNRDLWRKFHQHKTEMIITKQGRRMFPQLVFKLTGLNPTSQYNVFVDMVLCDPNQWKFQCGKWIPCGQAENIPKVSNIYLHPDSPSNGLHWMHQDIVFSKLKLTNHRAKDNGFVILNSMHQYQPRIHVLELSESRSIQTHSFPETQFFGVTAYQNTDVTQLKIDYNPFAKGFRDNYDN
Experiment: PBM E-score of 8-mer (E-score (dimensionless, -0.5 to 0.5)); Tbr is Tbrain of the sea star Patiria miniata (Pm) or the sea urchin Strongylocentrotus purpuratus (Sp); higher = stronger binding preference; most listed sequences are background and not binding sites
Settings: the construct has about 5 more residues each side
Procedure: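 Universal protein-binding microarray (Agilent AMADID 016060, 60-bp probes with a 35-bp variable region) incubated with 200 nM GST-fused Strongylocentrotus purpuratus Tbr T-box DNA-binding domain (residues 362-554) in PBS pH 7.5. Scored for every ungapped 8-mer (given with its reverse complement) as E-score (range -0.5 to 0.5; >0.45 counts as bound) and Z-score of median probe intensity. Two replicate arrays (datasets 1 and 2).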
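Also: protein at 200 nM in PBS on universal double-stranded arrays.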

Sequence	PBM E-score of 8-mer
CCTTTGGA	-0.0643 ± 0.027
CTTATATC	-0.0662 ± 0.058
AGGATAGA	-0.22678 ± 2.8e-05
AGATCCCC	-0.123 ± 0.036
CCTAATCA	0.0677 ± 0.062
CTCTTAAA	-0.133 ± 0.084
AGTCTCGG	-0.192 ± 0.065
ATGGCATA	-0.123 ± 0.018
AGCCCATG	-0.216 ± 0.015
CGACTATA	-0.07898 ± 0.00039
CTATCCAC	0.0121 ± 0.048
AGCCCTAA	-0.175 ± 0.048
ACACACGA	-0.00198 ± 0.078
ACTGGATC	-0.145 ± 0.029
ATACTGCA	-0.122 ± 0.042
CGCCACTC	0.156 ± 0.061
CAGATCAG	-0.0587 ± 0.00064
AAAGCGCC	0.00788 ± 0.0018
CGTTCCTA	0.0158 ± 0.031
AAATGAAT	-0.0995 ± 0.085
AGATAATA	0.00791 ± 0.037
AGAGAAAT	-0.0136 ± 0.08

Sequence	PBM E-score of 8-mer
AAACGTGG	0.144 ± 0.0096
GAGGTGCA	0.338 ± 0.032
AGGATCCC	-0.0944 ± 0.12
GCTCCTAA	-0.131 ± 0.044
ACACGCAG	0.208 ± 0.027
GGGATAAA	-0.0607 ± 0.059
GGTCAAAC	-0.151 ± 0.025
CCCTCGCA	0.221 ± 0.12
GCAACTGA	0.1197 ± 0.0011
GTCGGAAC	-0.0533 ± 0.0063
GCTCAGAA	-0.179 ± 0.023
CCTTTTGC	0.00317 ± 0.048
ACTTTAAG	-0.0154 ± 0.043
ACGCCTGC	0.249 ± 0.028
GCATCCGC	-0.00856 ± 0.1
AAACAGAA	-0.0348 ± 0.034
CCTCACTA	0.151 ± 0.0033
ATCGGCCC	-0.34 ± 0.035
TATTAGGA	-0.165 ± 0.018
CGGCGTAA	-0.0713 ± 0.059
CTCATACA	0.104 ± 0.011
AATTCCAA	0.00919 ± 0.054

Sequence	PBM E-score of 8-mer
CTTCCAGA	-0.22 ± 0.011
GCATGTGA	0.122 ± 0.046
GACATGCA	-0.0897 ± 0.028
ATGGGTCG	-0.0984 ± 0.0057
GTCGCATA	0.0477 ± 0.0084
CGACAGCA	0.0974 ± 0.024
AGGCCTTC	-0.121 ± 0.03
CGACCTTC	0.122 ± 0.0086
ACCTGAGT	0.087 ± 0.042
AGATACAG	-0.179 ± 0.049
GATCTCGA	0.099 ± 0.0094
ACTGGCAG	0.0387 ± 0.075
AGGACGAT	-0.225 ± 0.011
GGACGGTA	-0.271 ± 0.032
AGGAACCG	-0.0276 ± 0.015
CACGCGAC	0.295 ± 0.035
CGCGCATA	0.178 ± 0.011
ATCGGAAT	-0.00592 ± 0.013
CCTCTGGA	-0.0301 ± 0.041
ACATAAGG	-0.2225 ± 0.00057
GCCTGTCA	0.243 ± 0.048
AACTGACG	0.105 ± 0.021

Sequence	PBM E-score of 8-mer
CCGTTCGC	0.349 ± 0.012
AGTTGAAG	-0.195 ± 0.022
CCGCAGCC	-0.128 ± 0.032
CACATAAC	0.233 ± 0.043
ACACCCTA	0.371 ± 0.01
AAGCAACC	0.0517 ± 0.038
GGTTACTA	-0.2073 ± 0.00022
AACACATC	0.375 ± 0.012
ATCCGACG	-0.137 ± 0.095
AGAGCGCT	-0.111 ± 0.021
GCGACGAA	0.295 ± 0.022
ACGTAAAA	-0.201 ± 0.042
CCTTTAAA	-0.178 ± 0.04
AAGCAATG	-0.00317 ± 0.014
TAAGGCTA	-0.149 ± 0.077
AAGAGATT	-0.0725 ± 0.01
CCGCACGC	0.255 ± 0.036
ACCTTACA	0.262 ± 0.031
CCCTTGTC	-0.167 ± 0.083
GGAGATAA	0.0448 ± 0.047
ATAGTGCC	-0.121 ± 0.013
AGAGGATG	0.125 ± 0.024

Sequence	PBM E-score of 8-mer
AACACAGG	0.118 ± 0.038
ACCTCACG	0.239 ± 0.005
CTAATGCC	0.128 ± 0.016
GGTATCGA	-0.00159 ± 0.015
CGTGAACC	0.353 ± 0.018
AGTTCGAA	-0.189 ± 0.083
CTTCGGTA	-0.0964 ± 0.027
GCCTCTTA	-0.149 ± 0.037
GTAACAAA	0.105 ± 0.062
CACTGACC	-0.0548 ± 0.045
CTCTCAAC	0.171 ± 0.04
CGATTACC	-0.102 ± 0.044
AGGCTAAG	-0.147 ± 0.071
AGACAAAT	-0.106 ± 0.047
CTTCGCTA	-0.0135 ± 0.042
TCAGAGAA	-0.03 ± 0.083
ACCGTATC	-0.0796 ± 0.019
CATATAAG	-0.177 ± 0.021
CTTCATAA	0.0913 ± 0.004
CCACTAGG	-0.0743 ± 0.13
AATACCGC	-0.00703 ± 0.016
ACTTCCAT	0.00469 ± 0.14
